Laboratory results taken from the supplement of paper PMC3334620.
The full ranking holds about 33,000 sequences; the median of “E-score (-0.5 to 0.5)” is about -0.04, and the highest 2% start at about 0.36. Some of the results follow.

Target: T1, Hmlalpha2 (UniProt P0CY09)
T1 sequence: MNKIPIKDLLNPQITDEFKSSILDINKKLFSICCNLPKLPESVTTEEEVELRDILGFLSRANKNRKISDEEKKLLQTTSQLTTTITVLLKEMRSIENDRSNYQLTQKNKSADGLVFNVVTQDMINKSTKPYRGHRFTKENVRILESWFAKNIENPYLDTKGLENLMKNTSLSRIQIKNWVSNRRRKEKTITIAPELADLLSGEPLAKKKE
Assay: PBM E-score (8-mer binding enrichment) (E-score (-0.5 to 0.5)); higher = stronger / more preferred TF binding; most listed sequences are background and not binding sites
Settings: protein concentration: 200 nM; construct: GST-full length
Procedure, shortened: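 Universal all-10-mer Agilent arrays, double-stranded by primer extension on fresh or once-stripped slides, were probed with about 100-200 nM GST-tagged yeast transcription factors made by PURExpress. Fluorescent anti-GST detected bound protein, and masliner normalised the scans. E-scores from the Universal PBM Analysis Suite were given to each ungapped eight-base word pooled with its reverse complement.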

Sequence | PBM E-score
CGTTTATC | -0.02
ATCATCCC | -0.164
AACCAACA | 0.235
CGTCATTA | 0.0735
ACCCCCTG | -0.214
AGGTGAGC | -0.0355
GCCTGACC | -0.287
AGTGGTGC | -0.216
ACTCACGG | -0.0391
CAGTAAGA | 0.0324
ACCGTGGA | -0.174
CCGACGAA | 0.0889
CCTGGCTC | -0.175
ACGTCTAG | 0.0729
GCCTAGGC | -0.238
AGTGACCG | -0.283
ACGAGGAT | -0.0455
AGTTCCGC | -0.147
AGCGTCCT | -0.069
CTCCTTAC | 0.0461
GTTTTTCA | 0.144
ACATTAAC | 0.274
GCGGGCCC | -0.332
ATTCCCAA | -0.0247
CCCTCTTC | -0.323

Sequence | PBM E-score
ACTGCTCA | 0.0532
AGATTCCG | -0.0795
GGTCCTTA | -0.191
ATGGGATA | -0.0868
ATCGCATA | 0.117
GAAAACCA | -0.147
TGACTCAA | 0.0928
ATCCAAAT | 0.175
ATTCAAGA | 0.0843
GACGAACA | 0.168
CAAAAGGA | 0.0149
CCAGGCCG | -0.0128
AGAGAGCT | -0.282
CGCACATA | -0.0967
AGTTGGGG | -0.255
GTCCTCAC | -0.183
AACGGCTA | 0.0673
ATAGGCCC | -0.3
AAGCAATA | 0.0227
AAGTACAC | 0.359
CTCGTCTA | -0.0113
GGCAGAAA | 0.0971
CGCTAGTC | -0.259
ATGGAGTA | -0.0022
CGTTGTAC | 0.278

Sequence | PBM E-score
AGGAGAAC | -0.119
ATCCAGCA | -0.0498
CCGCATAC | 0.0261
GCGTATAC | 0.371
GGTCAGCA | -0.0791
ATCCCATG | 0.0147
ATGTGCTC | 0.159
GACGCGGA | 0.0365
CAACGTCG | 0.157
CTCAAGGC | -0.12
ATACACTC | 0.185
TAAGCACA | 0.0914
GTGAGGGA | -0.233
CGGGTCCC | -0.317
GTCCTCAA | 0.0177
AATTCTGA | 0.0269
GGTTTGGA | -0.00811
CATATTAA | 0.264
ACCAAGCA | -0.0294
ACAGCCGG | -0.073
ACAGCACC | -0.177
ACCGCCTA | -0.116
AGTTATGC | -0.0758
CCATTTTC | -0.0309
AAGCTCGA | 0.0333

Sequence | PBM E-score
ACTGTTAC | 0.00767
ATGTCTGA | 0.0994
CAGTGAAA | -0.0586
ATGTCGTG | 0.275
AGTTATAA | 0.172
CTAATTCA | 0.157
CGTACAAG | 0.149
CGCATGTA | 0.422
CGAATCCG | 0.0414
CAGATATA | 0.118
CACGCTCC | 0.0503
ATTCGCGA | 0.0435
CCCCCCCG | -0.385
AAAAGCCT | -0.154
ATAGTCAT | -0.0877
ATTCAACA | 0.352
AGCCTTTC | -0.3
GAAGTCAA | -0.176
CCTTTAAC | 0.279
AATCCTTA | -0.0251
ATACACTA | 0.149
AGCCTCCC | -0.306
GTGTATAA | 0.391
GCCCTCGC | -0.2
ATGTGGCG | -0.046

Sequence | PBM E-score
CCCGGGCC | -0.402
AATAGGGT | -0.059
CCGACGCC | 0.0274
CACACTCA | 0.135
CCGACTGA | -0.188
CCTGATTA | 0.0825
AGATCGGA | -0.0522
AATTGTCC | -0.113
ACAGTACA | 0.246
ACACAAAG | 0.236
TCGAGCGA | -0.0571
CAAGTATG | 0.109
CCGCACAC | -0.159
CAAATCAA | 0.191
GTAGTTTA | 0.301
CCTTTTTC | -0.111
GAATAGCA | -0.0136
AGACAGTG | 0.00269
AGCACAGA | 0.0774
GAAATCTA | -0.0263
AGACTTTA | -0.0845
AGGGAATG | -0.252
AGAATTCT | 0.136
CCTGTCGC | -0.136
ATGTCTGG | 0.00831

Sequence | PBM E-score
CAAGGACG | -0.139
ACCTAACA | 0.0957
GCTGCACA | 0.0338
ACTTGAGG | -0.203
ACCCCGTA | -0.0995
AAAAAAAC | 0.0774
GAAACGAC | 0.0452
CCCCTGCG | -0.195
GACTGTGC | -0.0787
CCGACCCA | -0.155
CGCCGGCA | -0.235
ACGGGCCA | -0.115
CAAAGGCC | -0.284
ACTGAACG | -0.0518
GTGACAGA | 0.176
AACAGTAC | 0.174
CTTGAGGC | -0.122
AAGTACGC | 0.0863
TTATGCAA | 0.11
ATTGTACA | 0.403
ACGCTGGC | -0.0793
TAGATTGA | 0.123
ACTAAGCC | -0.195
CCATATCG | -0.0849
CCTTATAG | 0.00852

Sequence | PBM E-score
ACCCTTCA | 0.00911
TCTCCCCA | -0.301
TAAGGGTA | -0.0432
GGCCGGTA | -0.0877
ATGCCGGA | -0.058
CAATAACC | 0.0425
GAAACAGA | 0.102
TACCCACA | -0.015
CTGCCGGC | -0.224
GTGGAACA | 0.0765
GGGGTCAC | -0.312
CAAGCGGG | -0.18
AACTACTT | 0.126
AGAAATTA | 0.194
CAACGAAC | 0.0552
AGAGGAGA | -0.237
CACAGGTA | 0.134
CTACCTAC | 0.176
CACCTTGG | -0.108
CTGCCGGA | -0.269
ACGTGGGC | 0.0276
GCAGGCTA | -0.277
